Results: PubChem BioAssay AID1347428 (National Center for Advancing Translational Sciences (NCATS), 2020)
The campaign covered roughly 91,000 compounds. About 290 (0.32%) were called active. The inconclusive results got no clear call from the source; some entries with a clear call stand among them for comparison. Calls follow the shape of the dose curve; as a rule, active = well fitted inhibition curve with a large enough effect; inconclusive = small, poorly fitted or top-dose-only effect; inactive = no such curve, though single readings can be large or run the other way. Potencies of inconclusive entries are doubtful fits and often do not repeat.

The compounds below were run against Single-stranded DNA cytosine deaminase (Homo sapiens) (UniProt Q9GZX7) (assay: Primary qHTS assay for inhibitors of Activation Induced Cytidine Deaminase (AID): AID signal). Conditions: AID deamination FRET fluorescence, UDG-coupled, 4 h; series mostly up to 115 µM.
Chain of UniProt Q9GZX7 (Q9GZX7 whole entry, looked up): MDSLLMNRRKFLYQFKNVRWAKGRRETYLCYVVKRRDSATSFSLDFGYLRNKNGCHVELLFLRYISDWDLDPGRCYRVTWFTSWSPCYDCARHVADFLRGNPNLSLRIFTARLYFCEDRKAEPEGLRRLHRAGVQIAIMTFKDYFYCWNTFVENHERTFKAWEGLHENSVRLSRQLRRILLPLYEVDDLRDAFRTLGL
Also: nearly all actives have a fitted effect of over 25% in size.
Potency is read from the fitted curve at half-maximal effect; tags tell the direction and shape of the fitted curve.

SMILES	Potency
CCCOc1ccccc1Oc1ncccc1CNC(=O)Nc1ccccc1	inactive
OC(COc1ccc(OCC(O)CN(Cc2ccccc2)Cc2ccccc2)cc1)CN(Cc1ccccc1)Cc1ccccc1 (configuration not stated)	inactive
Cc1cccc(NC(=O)CSc2nc3c(oc4ccccc43)c(=O)n2C(C)C)c1	inconclusive: 50.1 µM [inhibitor, partial curve, poor fit]
O=C(Nc1c(N2CCCC2)c2ccccc2oc1=O)c1ccc(Br)o1	inactive
COc1cc(OC)cc(C(=O)Nc2ccc3nc(N4CCC(C)CC4)cc(C)c3c2)c1	active: 39.8 µM
CCCCOc1cccc(C(=O)Nc2cccc3ccc(C)nc23)c1	inconclusive: 89.1 µM [inhibitor, partial curve, poor fit]
COc1cccc(NC(CNS(=O)(=O)c2ccc(C)cc2)c2ccccc2)c1 (configuration not stated)	inactive
O=C(c1nc(-c2ccc(Cl)cc2)n2c1CCCCC2)N1CCN(c2ccc(F)cc2)CC1	inconclusive: 39.8 µM [inhibitor, single point]
O=S(=O)(c1ccccc1)c1nc(-c2ccc(F)cc2)oc1N1CCOCC1	inconclusive: 79.4 µM [inhibitor, partial curve]
COc1ccc(C)cc1N(C)C(=O)c1sc2nc3n(c(=O)c2c1C)CCCCC3	inconclusive: 89.1 µM [inhibitor, partial curve, poor fit]
Cc1cccc(-c2noc(CN(C(=O)c3ccc(C)c(C)c3)C(C)C)n2)c1	inconclusive: 31.6 µM [inhibitor, full curve, poor fit]
Cc1csc2nc(-c3cccc(NC(=O)c4cccc(F)c4)c3)cn12	inconclusive: 8.91 µM [inhibitor, full curve, poor fit]
CCN(CC)S(=O)(=O)NCc1ccnc(N2CCN(c3ccc(F)cc3)CC2)c1	inactive
Cc1ccc(-n2ncc(C(=O)NCc3cccs3)c2C2CCN(C(=O)OC(C)(C)C)CC2)cc1C	inconclusive: 35.5 µM [inhibitor, full curve]
CS(=O)(=O)c1ncc(N(Cc2ccccc2)Cc2ccco2)c(C(=O)Nc2cccc(C(F)(F)F)c2)n1	inconclusive: 50.1 µM [inhibitor, partial curve, poor fit]
Cc1cccc(N(CC(=O)NC(C)c2ccccc2)S(=O)(=O)c2ccccc2)c1C (configuration not stated)	inconclusive: 56.2 µM [inhibitor, partial curve, poor fit]
Cc1ccc(CNC(=O)c2cn(C)c3ccc(S(=O)(=O)N(C)C4CCCCC4)cc3c2=O)cc1	inconclusive: 39.8 µM [inhibitor, single point]
COc1ccc(-c2cc(C(=O)N3CCN(c4ccccc4OC)CC3)c3cc(C(C)C)ccc3n2)cc1	inconclusive: 56.2 µM [inhibitor, partial curve, poor fit]
COc1ccccc1-c1csc(N2N=C(C)CC2c2cc(OC)c(OC)c(OC)c2)n1 (configuration not stated)	inactive
COc1cc(OC)c(OC)cc1CN1CCc2nc(N3CCN(c4ncccn4)CC3)ncc2C1	inconclusive: 89.1 µM [inhibitor, single point]
COc1ccc(-n2cc(-c3ccccc3)c3c(SC(C)C(C)=O)ncnc32)cc1 (configuration not stated)	inconclusive: 39.8 µM [inhibitor, single point]
COc1ccc(-c2nnc(Nc3ccc(OCC(N)=O)cc3)c3ccccc23)cc1	inactive
Cc1cc(/C=C/C(=O)c2ccc(F)cc2)cc(C)c1O	inactive

SMILES	Potency
COc1ccc(-c2cc(C(=O)NCCCOC(C)C)c3cc(Br)ccc3n2)cc1	inactive
CN(C)c1ccc(NC(=O)c2ccc[n+]([O-])c2)cn1	inactive
CCN(c1ccccc1)c1nnc(NC(=O)Nc2cccc(C(F)(F)F)c2)s1	inconclusive: 89.1 µM [inhibitor, single point]
COc1cc(NC(=O)C(=O)NC(C)CCc2ccccc2)ccc1N1CCCCS1(=O)=O (configuration not stated)	inactive
O=C(Cn1ccc2c(Br)cccc21)NCCCO	inactive
COc1ccc(-c2cc(C(C)=O)c(C)n2CCC(=O)Nc2cc(C)ccc2OC)cc1	inconclusive: 35.5 µM [inhibitor, partial curve, poor fit]
CCOC(=O)c1cc(OC(=O)c2cccc(C)c2)n(-c2ccccc2)n1	inconclusive: 79.4 µM [inhibitor, single point]
O=C(CSc1nc2cc3ccccc3cc2[nH]1)Nc1cccc(C(F)(F)F)c1	inactive
CCOc1ccc(C(=O)Nc2ccc(S(=O)(=O)N(Cc3ccccc3)c3ccccc3)cc2)cc1	inconclusive: 100 µM [inhibitor, single point]
CCOC(=O)c1c(NC(=O)CSc2cn(CCNC(=O)c3ccc(OCC)cc3)c3ccccc23)sc2c1CCCC2	inconclusive: 12.6 µM [inhibitor, full curve]
COc1ccc(OC)c(CNc2ncnc3onc(-c4ccc(Cl)cc4)c23)c1	inconclusive: 56.2 µM [inhibitor, partial curve, poor fit]
O=Cc1ccc(OCc2ccccc2Cl)c(Cl)c1	inconclusive: 50.1 µM [inhibitor, partial curve, poor fit]
COc1ccc(CCNC(=O)Cn2c(=O)c3cccn3c3ccc(F)cc32)cc1OC	active: 79.4 µM
COc1ccc(-c2nn(C)c3sc(C(=O)N4CCN(c5cc(Cl)ccc5C)CC4)cc23)cc1OC	inconclusive: 50.1 µM [inhibitor, partial curve, poor fit]
CN1CCN(CCCN2c3ccccc3Sc3ccc(Cl)cc32)CC1	inconclusive: 79.4 µM [inhibitor, partial curve]
C#CCNC(=O)c1cccc(C(N)=O)c1	inactive
CCOc1ccccc1NC(=O)c1ccc(C)c(S(=O)(=O)Nc2cccc(C)c2C)c1	inactive
COc1cc(-c2nc3cc(NC(=O)c4ccccc4)ccc3o2)cc(OC)c1OC	inconclusive: 50.1 µM [inhibitor, partial curve, poor fit]
O=[N+]([O-])c1cccc2nc(/C=C/c3ccc(O)cc3)ccc12	inactive
CCOC(=O)c1cc(-c2ccccc2)n(CCC(=O)NCCc2cccc(C)c2)c1C	inconclusive: 28.2 µM [inhibitor, full curve, poor fit]
COc1cccc(C2/C(=C(\O)c3ccc4c(c3)OCCO4)C(=O)C(=O)N2CCc2ccccc2)c1 (configuration not stated)	inconclusive: 50.1 µM [inhibitor, partial curve, poor fit]
O=C(O)c1cccc(NC(=O)c2cc3cc(Br)cc(Br)c3oc2=O)c1	inconclusive: 56.2 µM [inhibitor, partial curve, poor fit]
O=C(NCc1ccc(F)cc1)c1cc2cccc3c2n1CCS3	inconclusive: 100 µM [inhibitor, single point]

SMILES	Potency
COc1ccc(OC)c(NC(=O)Cn2c(=O)n(Cc3ccco3)c(=O)c3cc(OC)c(OC)cc32)c1	inactive
O=C(c1nn(Cc2ccccc2)c(=O)c2ccccc12)N1CCN(c2ccccc2O)CC1	inactive
CC(=O)[C@]1(O)Cc2c(O)c3c(c(O)c2[C@@H](O[C@H]2C[C@H](N)[C@H](O)[C@H](C)O2)C1)C(=O)c1ccccc1C3=O	active: 11.2 µM
CCCCNC(=O)c1cc(-c2ccc(C)o2)nc2ccccc12	inactive
O=C(CCSc1ccc(Cl)cc1)Oc1ccc2ccc(=O)oc2c1	inactive
Cc1cccc(CC(=O)N2CC(=O)Nc3ccc(C)cc3C2c2ccc(F)cc2)c1 (configuration not stated)	inconclusive: 89.1 µM [inhibitor, single point]
CCOc1ccc(-n2ccnc2SCC(=O)Nc2cccc3ccccc23)cc1	inconclusive: 22.4 µM [inhibitor, single point]
COc1ccc(N(Cc2cccs2)C(=O)COc2cccc(C)c2C)cc1	inconclusive: 20 µM [inhibitor, full curve, poor fit]
COC(=O)CC1Oc2ccc(F)cc2-n2cc(-c3ccc(C)cc3)nc21 (configuration not stated)	inconclusive: 100 µM [inhibitor, partial curve, poor fit]
CCOC(=O)N1CCc2c(sc(NCc3cccc(F)c3)c2C(=O)Nc2ccc(OC)cc2)C1	inactive
COc1ccccc1-c1nc(C#N)c(N2CCN(Cc3ccccc3)CC2)o1	inconclusive: 50.1 µM [inhibitor, partial curve, poor fit]
OB(O)c1cc2ccccc2s1	inactive
COc1ccc(N2C(=O)CSC23C(=O)N(Cc2cccc(C(F)(F)F)c2)c2ccccc23)cc1 (configuration not stated)	inconclusive: 44.7 µM [inhibitor, partial curve, poor fit]
Cc1ccc(Nc2c3c(nc4nc(-c5cccs5)nn24)CCCC3)cc1F	inconclusive: 50.1 µM [inhibitor, partial curve, poor fit]
COc1ccc(-c2cc3ccc(O)cc3oc2=O)c(OC)c1	inactive
Cc1cccc(NC(=O)Cn2nnc(C(=O)NCc3cccs3)c2N)c1	inconclusive: 112 µM [inhibitor, partial curve, poor fit]
CCN(Cc1ccccc1)Cc1csc(C)c1C	inactive
Cc1nc2nc(N(Cc3ccccc3)C(=O)c3ccco3)[nH]n2c(=O)c1Cc1ccccc1Cl	inconclusive: 50.1 µM [inhibitor, partial curve, poor fit]
O=C(Nc1nc(-c2ccccc2)cs1)c1ccc(Cl)c(N2CCCC2=O)c1	inactive
c1ccc(N2CCN(c3nc(-c4cccnc4)nc4ccccc34)CC2)cc1	inconclusive: 50.1 µM [inhibitor, partial curve, poor fit]
CCOc1ccccc1C(=O)Nc1ccc(-n2nncc2-c2ccccc2)cc1	inconclusive: 20 µM [inhibitor, full curve, poor fit]
